Laboratory results published in the supplement of paper PMC3334620.
Whole data set: some 33,000 sequences, median “E-score (-0.5 to 0.5)” near -0.017, cut for the highest 2% near 0.3. The list shows a part of the results.

The sequences below were run against T1, Sut1 (UniProt P53032) (assay: PBM E-score (8-mer binding enrichment) (E-score (-0.5 to 0.5)); higher = stronger / more preferred TF binding; most listed sequences are background and not binding sites). Conditions: protein concentration: 200 nM; construct: GST-full length.
T1 sequence: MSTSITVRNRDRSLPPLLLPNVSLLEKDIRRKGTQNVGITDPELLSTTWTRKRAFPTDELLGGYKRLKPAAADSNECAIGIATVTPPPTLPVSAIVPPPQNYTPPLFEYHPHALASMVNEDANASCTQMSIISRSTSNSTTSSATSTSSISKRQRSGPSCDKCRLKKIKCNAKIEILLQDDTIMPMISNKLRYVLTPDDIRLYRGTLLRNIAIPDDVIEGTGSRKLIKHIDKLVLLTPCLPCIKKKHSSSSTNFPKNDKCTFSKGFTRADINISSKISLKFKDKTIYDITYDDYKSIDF
Outline: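 Full-length yeast transcription factors or their DNA-binding domains, GST-tagged and expressed with PURExpress, were applied at about 100-200 nM to universal all-10-mer Agilent arrays. These arrays had been made double-stranded by primer extension on fresh or once-stripped slides. Detection used fluorescent anti-GST, normalisation used masliner, and E-scores for ungapped eight-base words pooled with reverse complements came from the Universal PBM Analysis Suite.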

Going from GAATCAGA to CGCGCATC, the “PBM E-score” value falls from 0.0352 to -0.0907.

Going from ACGCAGAT to CTCCTTCC, the “PBM E-score” value falls from 0.118 to -0.22.

Going from ATCTGGGA to CAAGGGCG, the “PBM E-score” value falls from -0.168 to -0.18.

Going from GCTATGGA to AGGGAACT, the “PBM E-score” value falls from 0.0633 to -0.0607.

Going from GACGGACC to ATGAATAA, the “PBM E-score” value falls from 0.162 to 0.146.

First: AGTCGGAA
Second: TCCAGCAA
The “PBM E-score” value of the first is higher: 0.243 for the first, -0.153 for the second.

First: GGGTGACA
Second: AGCAGAAT
The “PBM E-score” value of the first is lower: -0.336 for the first, -0.0512 for the second.

Going from CGGTTTAG to AATGATTG, the “PBM E-score” value rises from -0.0675 to 0.164.

Compared with AGGTTCGA, ACAAAGCC is lower in “PBM E-score” value: 0.0769 for the first, 0.0373 for the second.

First: TAAACACA
Second: AGGATCCG
The “PBM E-score” value of the first is higher: 0.128 for the first, -0.201 for the second.

First: ATGTCAAC
Second: CCTATTCC
The “PBM E-score” value of the first is higher: 0.102 for the first, 0.0467 for the second.

Going from GCTCTAAA to ATAAAAGA, the “PBM E-score” value rises from -0.0761 to 0.0494.

Compared with GCGTCGGA, AGATCGGG is lower in “PBM E-score” value: 0.229 for the first, 0.0511 for the second.

First: AATGGTGG
Second: ACTGTCGG
The “PBM E-score” value of the first is higher: -0.119 for the first, -0.215 for the second.

Going from AATGAAAA to ATCACGTC, the “PBM E-score” value falls from 0.178 to -0.154.

First: AGACTGTA
Second: AGGTTATC
The “PBM E-score” value of the first is lower: -0.0592 for the first, 0.0484 for the second.

First: CCGTCCAC
Second: TCCTGAAA
The “PBM E-score” value of the first is higher: 0.0551 for the first, -0.0671 for the second.

Compared with GTGGCGCA, CTACGATA is higher in “PBM E-score” value: -0.22 for the first, 0.0794 for the second.

First: AAAAATGA
Second: CAACAAGG
The “PBM E-score” value of the first is higher: 0.0571 for the first, -0.00711 for the second.

Going from CTGTGCAC to AATGGGCA, the “PBM E-score” value rises from -0.277 to 0.0236.

Compared with CAACTATC, GCCACAGA is lower in “PBM E-score” value: -0.146 for the first, -0.172 for the second.

Compared with CGAAACCG, GGTGGCAC is lower in “PBM E-score” value: -0.00738 for the first, -0.235 for the second.

First: CTCCATCA
Second: GCCGTTAC
The “PBM E-score” value of the first is lower: -0.0323 for the first, -0.0101 for the second.

First: ATAAGGAG
Second: CTCCTGTC
The “PBM E-score” value of the first is higher: 0.0629 for the first, 0.0458 for the second.

Going from TCGCGAGA to AGCTACGG, the “PBM E-score” value falls from 0.028 to -0.144.

Going from CCACCCAA to GACGATGC, the “PBM E-score” value falls from -0.0338 to -0.189.

Compared with AATAACGG, GCAACACC is lower in “PBM E-score” value: 0.17 for the first, 0.00403 for the second.

Compared with AGTCAAGC, ACGCGCCA is higher in “PBM E-score” value: -0.299 for the first, -0.231 for the second.

Compared with CGATGGTA, ATTTTTAA is higher in “PBM E-score” value: -0.0389 for the first, 0.249 for the second.

Going from CAAAGGAC to ACGAACGT, the “PBM E-score” value rises from -0.235 to -0.00531.

Going from CATAGACG to AGGCCGGA, the “PBM E-score” value rises from 0.014 to 0.279.

Compared with GATACACC, CGGAAACA is higher in “PBM E-score” value: 0.14 for the first, 0.236 for the second.

Going from GAAGTCTC to CAATAATC, the “PBM E-score” value rises from -0.126 to 0.0927.

First: AAAGGAGG
Second: CGAGGGCC
The “PBM E-score” value of the first is higher: -0.105 for the first, -0.113 for the second.

Compared with ATGATCAT, CGTAAACC is lower in “PBM E-score” value: 0.0203 for the first, -0.153 for the second.

Compared with TGAGGTAA, ATGGGGTC is lower in “PBM E-score” value: 0.0544 for the first, -0.127 for the second.

First: GCGCGAGA
Second: CTTCTTTC
The “PBM E-score” value of the first is lower: 0.00138 for the first, 0.0488 for the second.

Going from TAGACCTA to CGTCAAGA, the “PBM E-score” value falls from -0.088 to -0.239.

First: CTCGGATA
Second: GCTTAAGC
The “PBM E-score” value of the first is higher: 0.126 for the first, -0.0407 for the second.

First: ATCGCAAT
Second: CCTCTCGC
The “PBM E-score” value of the first is higher: 0.0798 for the first, -0.157 for the second.

Compared with TAATATTA, CGGCGCAA is lower in “PBM E-score” value: 0.313 for the first, -0.0845 for the second.

Compared with CCACATAA, ACGTCACT is higher in “PBM E-score” value: -0.159 for the first, -0.0239 for the second.

Going from AGCATAGA to ATGCCCGA, the “PBM E-score” value falls from -0.0956 to -0.173.

First: GATTTGGC
Second: CTCACTTC
The “PBM E-score” value of the first is lower: -0.189 for the first, -0.141 for the second.

First: CCCATTTA
Second: CGACGATC
The “PBM E-score” value of the first is lower: -0.0267 for the first, -0.0217 for the second.

Compared with CACAAGCC, AACAGTGT is lower in “PBM E-score” value: -0.125 for the first, -0.129 for the second.

First: AGCCACAT
Second: CGCGACAA
The “PBM E-score” value of the first is lower: 0.00792 for the first, 0.0933 for the second.
